Assay results reported in the supplement of paper PMC10126150.
Sequences with one replicate were seen in a single cluster, so their values are uncertain.

Tested on: ATP
Assay: switch fluorescence ratio, 500 uM ATP over buffer (Cy3 cluster intensity, sum of 5 cycles each) (fold (ratio)); higher = stronger signal-on switching upon ATP binding; sequences stand for … in TCGTCGGCAGCGTCAGATGTGTATAAGAGACAGTTTTTTTTTTTTTTTTTTTTTTTTT…TC
Conditions: aptamer strand: ATP DNA aptamer (quencher-CACCTGGGGGAGTATTGCGGAGGAAGG + anchor), 100 nM annealed; ATP concentration: 500 uM; one replicate
In short: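 Per cluster, summed Cy3 intensity from the target cycles was divided by that from the buffer cycles to give the fluorescence ratio, then averaged per switch-domain sequence. Clusters outside 100-1000 RFU were excluded. The Cy3-labelled switching-strand clusters, on a modified Illumina MiSeq flow-cell, were annealed to 100 nM quencher-labelled ATP aptamer and imaged in selection buffer, then after 15 min with 500 uM ATP at 22 °C, for five cycles with NaOH stripping and re-annealing between them.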
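Note: ATP exposure 15 min at 22 °C before imaging.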

| Sequence | switch fluorescence ratio |
| --- | --- |
| TCAATTCAGT | 0.965 |
| TCAATTCTTC | 1.34 |
| TCAATTGGTG | 1.01 |
| TCAATTTAGT | 0.988 |
| TCACACAACG | 1.23 |
| TCACACCCAG | 1.4 |
| TCACAGTCAA | 1.06 |
| TCACAGTTGT | 0.981 |
| TCACAGTTTG | 1.02 |
| TCACATTCTG | 1.03 |
| TCACATTGTT | 1.03 |
| TCACCAATCG | 0.988 |
| TCACCCAGAC | 1.43 |
| TCACCGTATG | 1.07 |
| TCACCTCTGG | 0.948 |
| TCACCTTTCT | 1.27 |
| TCACGACTGA | 1.06 |
| TCACGCGGTA | 1.08 |
| TCACGCTAGT | 1.07 |
| TCACGGACTT | 1.4 |
| TCACGGAGGT | 1.01 |
| TCACGGCCTT | 1.01 |

| Sequence | switch fluorescence ratio |
| --- | --- |
| TCACGTGCG | 1.07 |
| TCACTAGGAG | 1.06 |
| TCACTATACG | 1.3 |
| TCACTGGATT | 1.02 |
| TCACTTAGGC | 1.15 |
| TCACTTATGA | 1.06 |
| TCACTTATTG | 0.967 |
| TCACTTCACG | 1.22 |
| TCACTTCATT | 1.02 |
| TCACTTGGCC | 1.01 |
| TCACTTGTAC | 1.22 |
| TCAGAACCGC | 1.13 |
| TCAGACCA | 1.01 |
| TCAGACCAAC | 1.18 |
| TCAGAGAGAT | 0.982 |
| TCAGAGGTGC | 1.05 |
| TCAGAGTAGA | 1.02 |
| TCAGATAGGT | 0.995 |
| TCAGCCAGTC | 1.03 |
| TCAGCCCTA | 0.984 |
| TCAGCTTGGT | 1.02 |
| TCAGCTTTCG | 1.02 |

| Sequence | switch fluorescence ratio |
| --- | --- |
| TCAGGAAAA | 1.01 |
| TCAGGACAGG | 1.04 |
| TCAGGAGGGA | 1.09 |
| TCAGGATATC | 1.02 |
| TCAGGCCACT | 1.07 |
| TCAGGCCCTG | 0.992 |
| TCAGGCTTTC | 1.05 |
| TCAGGGAACT | 0.985 |
| TCAGGGCAAA | 1.02 |
| TCAGGGG | 1.15 |
| TCAGGTAACT | 1.05 |
| TCAGTGAGGT | 0.997 |
| TCAGTGGTTC | 1.01 |
| TCAGTTGAAT | 0.986 |
| TCATAAGTCA | 1 |
| TCATAATAAC | 0.995 |
| TCATACCCTT | 1.09 |
| TCATACGGGC | 1.09 |
| TCATAGAGCA | 0.975 |
| TCATAGCTTG | 0.99 |
| TCATAGGCAA | 1.95 |
| TCATATACGT | 1.06 |

| Sequence | switch fluorescence ratio |
| --- | --- |
| TCATATATCG | 1.04 |
| TCATATCGTG | 0.98 |
| TCATATCTTT | 0.981 |
| TCATATGGGA | 1.04 |
| TCATATTCAC | 1 |
| TCATCACTTA | 1.07 |
| TCATCAGTTA | 1.04 |
| TCATCATGTG | 1.03 |
| TCATCCAGTT | 1.04 |
| TCATCCGCCG | 1.56 |
| TCATCGATCC | 1.02 |
| TCATCGTCGT | 0.975 |
| TCATCGTTAC | 1.4 |
| TCATCTGTCT | 0.979 |
| TCATCTTCAA | 1.09 |
| TCATCTTTCT | 1.01 |
| TCATGAGTGG | 0.988 |
| TCATGCCAAT | 0.993 |
| TCATGCTAGT | 1.05 |
